Results are given in words; binding and its absence hold for the method and conditions named. In cells and extracts the contact can be indirect. Some results given as binding are weak or reduced against the parent protein; the word gives no strength. Tags and fused reporters may be left off the sequences shown.
Experiments:
Test in all cases: co-IP; MN-1 cells transiently cotransfected with TRPV4-FLAG (WT or mutant) and ARHGEF10-Myc; TRPV4 antagonist (500 nM) from 4 h after transfection; Pierce IP Lysis Buffer; tag antibody on Dynabeads Protein G, 1 h at 4 °C; immunoblot
[1] = target: TRPV4^R269C-FLAG (human) (UniProt Q9HBA0)
[2] = target: TRPV4^WT-FLAG (in MN-1 cells) (human) (UniProt Q9HBA0)
[3] = target: TRPV4^R315W-FLAG (human) (UniProt Q9HBA0)

Measured: binding

B1: ARHGEF10-Myc (protein, UniProt O15013 1-1369)
chain: MRPPGFLSRAPSLNRAERGIWSCSMDQREPLPPAPAENEMKYDTNNNEEEEGEQFDFDSGDEIPEADRQAPSAPETGGAGASEAPAPTGGEDGAGAETTPVAEPTKLVLPMKVNPYSVIDITPFQEDQPPTPVPSAEEENVGLHVPCGYLVPVPCGYAVPSNLPLLLPAYSSPVIICATSLDEEAETPEVTEDRQPNSLSSEEPPTSEDQVGREDSALARWAADPANTAWMENPEEAIYDDVPRENSDSEPDEMIYDDVENGDEGGNSSLEYGWSSSEFESYEEQSDSECKNGIPRSFLRSNHKKQLSHDLTRLKEHYEKKMRDLMASTVGVVEIQQLRQKHELKMQKLVKAAKDGTKDGLERTRAAVKRGRSFIRTKSLIAQDHRSSLEEEQNLFIDVDCKHPEAILTPMPEGLSQQQVVRRYILGSVVDSEKNYVDALKRILEQYEKPLSEMEPKVLSERKLKTVFYRVKEILQCHSLFQIALASRVSEWDSVEMIGDVFVASFSKSMVLDAYSEYVNNFSTAVAVLKKTCATKPAFLEFLKQEQEASPDRTTLYSLMMKPIQRFPQFILLLQDMLKNTSKGHPDRLPLQMALTELETLAEKLNERKRDADQRCEVKQIAKAINERYLNKLLSSGSRYLIRSDDMIETVYNDRGEIVKTKERRVFMLNDVLMCATVSSRPSHDSRVMSSQRYLLKWSVPLGHVDAIEYGSSAGTGEHSRHLAVHPPESLAVVANAKPNKVYMGPGQLYQDLQNLLHDLNVIGQITQLIGNLKGNYQNLNQSVAHDWTSGLQRLILKKEDEIRAADCCRIQLQLPGKQDKSGRPTFFTAVFNTFTPAIKESWVNSLQMAKLALEEENHMGWFCVEDDGNHIKKEKHPLLVGHMPVMVAKQQEFKIECAAYNPEPYLNNESQPDSFSTAHGFLWIGSCTHQMGQIAIVSFQNSTPKVIECFNVESRILCMLYVPVEEKRREPGAPPDPETPAVRASDVPTICVGTEEGSISIYKSSQGSKKVRLQHFFTPEKSTVMSLACTSQSLYAGLVNGAVASYARAPDGSWDSEPQKVIKLGVLPVRSLLMMEDTLWAASGGQVFIISVETHAVEGQLEAHQEEGMVISHMAVSGVGIWIAFTSGSTLRLFHTETLKHLQDINIATPVHNMLPGHQRLSVTSLLVCHGLLMVGTSLGVLVALPVPRLQGIPKVTGRGMVSYHAHNSPVKFIVLATALHEKDKDKSRDSLAPGPEPQDEDQKDALPSGGAGSSLSQGDPDAAIWLGDSLGSMTQKSDLSSSSGSLSLSHGSSSLEHRSEDSTIYDLLKDPVSLRSKARRAKKAKASSALVVCGGQGHRRVHRKARQPHQEELAPTVMVWQIPLLNI
binds: all assays above

Reference: PMC12796746
